Test results from PubChem BioAssay AID1656 (Sanford-Burnham Center for Chemical Genomics, 2009).
The other results are listed elsewhere or left out. Shown are side measurements of this screen, not its main read-out; they come without a call. Most of these compounds were active or inconclusive in the main read-out, so they are no random draw.

Assay: oleate-induced lipid droplet accumulation in AML12 cells – imaging, high-throughput imaging, BODIPY stain, primary screen (AID 1656);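 note: cells counted across two imaged fields per well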
Settings: AML12 mouse hepatocytes, oleate lipid droplets, measured here: cell count, cytotoxicity flag, at 6.5 µM
Procedure, shortened: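 Technique: fluorescence imaging, 20x objective, two fields per well / Assay system: AML12 hepatocytes (mouse) / Measure: % inhibition of lipid droplet signal / Doses: 6.5 µM single-point dosing / Incubation: overnight exposure / Reagent: 100 µM oleic acid challenge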

Row | SMILES | cell count [cells]
1 | CC1C/C(=C/c2ccccn2)C(=O)/C(=C/c2ccccn2)C1 (configuration not stated) | 280
2 | Cc1ccc(-n2nc(C)c3c(=O)[nH]c(C(F)(F)F)nc32)cc1 | 616
3 | COC(=O)c1ccc2c(c1)NC(=O)C(N(CC(C)C)CC(C)C)S2 (configuration not stated) | 578
4 | N/C(Cc1ccc(Cl)cc1Cl)=N\OC(=O)c1ccc(Br)o1 | 758
5 | COc1cccc(/C=C/C(=O)NCCc2ccc(OC)c(OC)c2)c1 | 757
6 | CCCSC(=O)N(CC)CC(=O)Nc1c(CC)cccc1CC | 556
7 | CC1=C(C(=O)OCC2CCCO2)C(c2ccc(Cl)c(Cl)c2)NC(=O)N1 (configuration not stated) | 664
8 | COc1ccc(C[C@H]2CN3C(=NC[C@H]3Cc3ccccc3)N2CCNC(=O)c2ccc(C)c(Br)c2)cc1 | 686
9 | CCCCOc1ccc(-c2ncc([N+](=O)[O-])cn2)cc1 | 741
10 | CCOc1ccccc1NC(=O)CSCC(=O)Nc1ccccc1 | 759
11 | CCOC(=O)c1[nH]c2c(c1C)C(=O)CC(c1ccc(F)cc1)C2 (configuration not stated) | 296
12 | CCOc1ccc(CCNC(=O)CCNS(=O)(=O)c2ccc(Br)cc2)cc1OCC | 686
13 | COCCCn1c(SCC(=O)Nc2ccc(NC(=O)c3ccco3)c(OC)c2)nc2ccccc2c1=O | 754
14 | Cc1ccc(C(=O)NCCc2nc3ccccc3[nH]2)cc1[N+](=O)[O-] | 598
15 | COc1ccc(/C=C/C(=O)NCC2COc3ccccc3O2)c(OC)c1 (configuration not stated) | 714
16 | CCOc1ccc(CCNC(=O)CN2CCN(Cc3ccc(F)cc3)C2=O)cc1OCC | 715
17 | CCOc1ccc(CCNC(=O)Cn2ncn3nc(-c4ccc(OC)cc4)cc3c2=O)cc1OCC | 735
18 | Cn1cccc1/C=C1\SC(=Nc2ccc(O)cc2)NC1=O | 272
19 | COc1ccc(C(C(=O)NC2CCCC2)N(CCC(C)C)C(=O)CCC(=O)Nc2cc(C)on2)cc1 (configuration not stated) | 786
20 | Cc1c(C(=O)OC2CCCC2)[nH]c2c1C(=O)CC(c1ccco1)C2 (configuration not stated) | 233
21 | COc1ccc(S(=O)(=O)N(CC(=O)N2CCCCCC2)c2ccccc2OC)cc1 | 780
22 | Cc1[nH]n(-c2ccccc2)c(=O)c1N=Nc1cccc(Cl)c1 | 837
23 | CCOc1ccccc1NS(=O)(=O)c1ccc(-c2cnc(C3CC3)o2)cc1 | 192
24 | CCC1(c2ccccc2)NC(=O)N(CC(=O)NCc2ccc(OC)cc2)C1=O (configuration not stated) | 69
25 | O=C1OCC2=C1C(c1ccc(F)cc1)c1cc3c(cc1N2)OCCO3 (configuration not stated) | 70
26 | Cc1c(NC(=S)N/N=C\c2ccccc2O)c(=O)n(-c2ccccc2)n1C | 291

Row | SMILES | cell count [cells]
27 | CCn1cc(CCCC(=O)NCc2cccc(OC)c2)c2ccccc21 | 848
28 | Cc1ccc(C)c(NC(=S)c2ccc3ccccc3n2)c1 | 576
29 | COc1ccc(CC(=O)Nn2c(-c3ccccc3)nc3ccccc3c2=O)cc1 | 677
30 | Cc1ccc2nc(Cl)c(/C=N/NC(=O)[C@H]3C[C@@H]3c3ccccc3)cc2c1 | 685
31 | CCCc1nc2ccccc2c(C(=O)OC(C)C(=O)NCc2ccc3c(c2)OCO3)c1CC (configuration not stated) | 671
32 | COc1ccc2c(c1)c(/C=N/Nc1nc3ccccc3[nH]1)c(C)n2C | 157
33 | CC1=CC(=O)C=C(C)C1=NOc1ccccc1[N+](=O)[O-] | 38
34 | CCc1ccccc1NC(=O)C1=CC(c2cccs2)=NS(=O)(=O)N1C | 780
35 | O=C(O)CSCC(=O)Nc1ccc(C2CCCCC2)cc1 | 154
36 | Cc1noc(C)c1C(=O)Nc1ccc(F)cc1F | 771
37 | Cc1ccc(-n2nc3c(=O)n(C(C)C(=O)NCCc4cccs4)nc(C)c3c2C)cc1 (configuration not stated) | 714
38 | CC(=O)C1=C(C)NC(SCSc2ccccc2)=C(C#N)C1c1cccnc1 (configuration not stated) | 556
39 | COc1ccc2c(c1)C(C)=CC(C)(C)N2S(=O)(=O)c1ccc(Br)cc1 | 237
40 | CC(=O)Cc1nsc(NC(=O)c2ccc(COc3ccccc3Cl)o2)n1 | 152
41 | CCOc1cc([C@@H]2C[C@H]3CN(c4ccccc4)C(=O)[C@]34CCCN24)ccc1OC | 696
42 | CCN1CCN(Cc2ccc(NC(=O)c3ccc(C)c(NC(=O)C(=O)c4c[nH]c5ccccc45)c3)cc2C(F)(F)F)CC1 | 742
43 | CCCOc1ccc(/C=N/Nc2ccccc2[N+](=O)[O-])c(OCCC)c1 | 704
44 | COC(=O)c1ccc(CN2C(=O)c3ccccc3C2=O)o1 | 124
45 | CC(C)Cn1c(N)c(C(=O)COC(=O)c2cc(C3CC3)nc3ccccc23)c(=O)n(C)c1=O | 642
46 | Cc1ccc(NC(=O)N2CCC(C(=O)c3ccc(F)cc3)CC2)cc1 | 830
47 | CCOc1ncccc1C(=O)N1CCN(c2cc(Cl)ccc2C)CC1 | 246
48 | COc1ccc(N2CCN(C(=O)c3cc(C)on3)CC2)cc1 | 811
49 | COc1cc(C(=O)Nc2nc(-c3ccc(C)cc3)cs2)ccc1OCC(=O)N1CCOCC1 | 690
50 | O=C(COC(=O)COc1ccc(Cl)cc1Cl)Nc1cccnc1Cl | 734
51 | COC(=O)c1cc(-c2ccc(OC)cc2)nc2nc(SC)[nH]c(=O)c12 | 766
52 | CCCCOc1ccc(NC(=O)Cn2c(=O)ccc3c(C)cc(C)nc32)cc1 | 726

Row | SMILES | cell count [cells]
53 | O=C(CC(=O)N/N=C/c1ccc(F)cc1)N/N=C/c1ccc(F)cc1 | 286
54 | COc1ccc(Cl)c(NC(=O)C/C(C)=N/NC(=O)CCc2ccccc2)c1 | 798
55 | COc1ccc(Cl)cc1NC(=O)Nc1ccc(C(=O)N2CCCC2)cc1 | 813
56 | Clc1ccccc1CN(Cc1ccco1)Cc1nnnn1C1CCCC1 | 748
57 | CCOc1ccc(CCNC(=O)CS(=O)Cc2nc(-c3ccccc3C)oc2C)cc1OCC (configuration not stated) | 761
58 | O=C(CN1C(=O)NC2(CCOc3ccccc32)C1=O)c1ccc(Br)cc1 (configuration not stated) | 695
59 | CC(C)CN1C(=O)/C(=C/c2c(N3CCc4ccccc4C3)nc3ccccn3c2=O)SC1=S | 700
60 | CCn1cc([N+](=O)[O-])c(C(=O)N2N=C(c3ccc4ccccc4c3)CC2c2cc(Br)ccc2O)n1 (configuration not stated) | 779
61 | CCOc1ccc2c(c1)-c1c(ssc1=S)C(C)(C)N2C(=O)c1ccco1 | 742
62 | CCOc1ccc(-c2csc(NNC3=NCCCCC3)n2)cc1 | 668
63 | COc1cccc(-c2nc(NCc3ccccc3)c3ccccc3n2)c1O | 827
64 | Cc1cc(C=O)c(O)cc1O | 826
65 | COc1ccc(COc2cc(-c3cccc(OC)c3)nc3ccc(N)cc23)cc1 | 39
66 | O=c1[nH]cnc2sc3c(c12)CCN(Cc1ccccc1)C3 | 558
67 | CN(C)c1ccc(N=Nc2ccccc2Br)cc1 | 811
68 | Cc1ccc([N+](=O)[O-])cc1NC(=O)C(C)Sc1nnc(C)n1CC1CCCO1 (configuration not stated) | 800
69 | CCc1nc2ccccc2c(C(=O)OCC(=O)NCc2ccc3c(c2)OCO3)c1C | 731
70 | Cc1ccc(Nc2nc(N/N=C/c3c[nH]c4ccccc34)nc(N3CCOCC3)n2)cc1 | 568
71 | Cc1cccc(NC(=O)N2CCC(C(=O)c3ccc(F)cc3)CC2)c1 | 838
72 | CC(C)N=C(NS(=O)(=O)c1ccccc1)C(Cl)(Cl)Cl | 35
73 | COc1cc([C@@H]2c3cc4c(cc3[C@@H](NC3CCN(Cc5ccccc5)CC3)[C@H]3COC(=O)[C@H]23)OCO4)cc(OC)c1O | 121
74 | Cc1ccc(-n2nc3c(=O)n(CC(=O)NC(C)CCc4ccccc4)nc(C)c3c2C)cc1 (configuration not stated) | 780
75 | CCOC(=O)C1CCN(S(=O)(=O)c2ccc3c(c2)NC(=O)C(C)C(=O)N3)CC1 (configuration not stated) | 740
76 | COc1cc(/C=N/Nc2nc(Nc3ccccc3)nc(N3CCOCC3)n2)ccc1OC(=O)c1ccco1 | 29
77 | CCCCNC(=O)c1ccc2c(c1)N(C)C(=O)c1ccccc1S2 | 777
78 | COc1cccc(N2CCN(CC(=O)Nc3nnc(-c4ccccc4)s3)CC2)c1 | 728

Row | SMILES | cell count [cells]
79 | Cc1ccc(-n2nc3c(=O)n(CC(=O)NC4CCCCC4)nc(C)c3c2C)cc1 | 716
80 | CCOc1ccccc1N1CCN(C(=O)NCc2ccc(C)cc2)CC1 | 823
81 | CCOc1cc(C(=O)N/N=C/C(Br)=C/c2ccccc2)cc(OCC)c1OCC | 211
82 | COC(=O)c1sc2cc([N+](=O)[O-])cc(SCC(C)C)c2c1N | 699
83 | COc1ccc(C2(c3ccc(OC)cc3)NC(=O)N(CC(=O)Nc3ccccc3C)C2=O)cc1 | 709
84 | CCC(C)c1ccccc1NC(=O)COC(=O)c1ccc2[nH]c3c(c2c1)CCCC3 (configuration not stated) | 602
85 | O=C(CCl)N=c1sccn1Cc1cccc2ccccc12 | 231
86 | CCCn1c(SCC(=O)NC)nc2sc3c(c2c1=O)CCC3 | 154
87 | COC(=O)c1cn(NC(=O)c2ccc([N+](=O)[O-])cc2Cl)c(=O)c2ccccc12 | 661
88 | CCCCSCCCNC(=O)c1ccc2c(c1)N(CC)C(=O)c1ccccc1S2=O (configuration not stated) | 810
89 | Cc1cc(Cl)ccc1NC(=S)NCCCN1CCCC1=O | 291
90 | COc1cccc(N=Nc2ccc3ccccc3c2O)c1 | 769
91 | COc1ccccc1N1CCN(C(=O)Cn2ncc3c([nH]c4ccccc43)c2=O)CC1 | 732
92 | CCOCCCNC(=O)c1ccc2c(c1)N=C(CC)c1cc(Br)ccc1S2 | 200
93 | COCCNC(=S)N1CCc2cc(OC)c(OC)cc2C1COc1cc(C)cc(C)c1 (configuration not stated) | 565
94 | COc1ccc(-c2nc(NC(=O)c3ccc(OCC(=O)N4CCOCC4)c(OC)c3)sc2C)cc1 | 547
95 | O=C(CNc1ccccc1)N/N=C/c1cn(-c2ccccc2)nc1-c1ccccc1 | 650
96 | COCCn1cnc2c(c1=O)c1nc3ccccc3nc1n2/N=C/c1ccc(OC)c(OC)c1 | 691
97 | CCC(=O)Nc1c2c(nn1-c1ccc(C)cc1)CS(=O)(=O)C2 | 736
98 | COc1ccc(NC(=O)CN2C(=O)NC(c3ccccc3)(c3ccccc3)C2=O)cc1OC | 784
99 | CCn1cc(C(=O)N(C)c2ccc(OC)cc2)c2cc(OC)c(OC)cc2c1=O | 829
100 | O=C(Nc1ccc(NC(=O)c2cc3ccccc3o2)cc1)c1ccco1 | 769
101 | NC(=O)N/N=C/c1ccc(-c2ccc([N+](=O)[O-])cc2)o1 | 657
102 | COc1ccc(OS(=O)(=O)c2ccc(N3C(=O)CCC3=O)cc2)cc1 | 49
